From PubChem BioAssay AID1963576 (National Center for Advancing Translational Sciences (NCATS), 2024)
The whole screen tested about 46,000 compounds, of which about 60 (0.1%) were called active. Another 3% or so got no clear call; they are omitted. Calls come from the whole dose curve; as a rule, active = well fitted inhibition curve with a large enough effect; inconclusive = small, poorly fitted or top-dose-only effect; inactive = no such curve, though single readings can be large or run the other way. This is one part of the list.

experiment: Primary qHTS assay for Inhibitors of ovarian cancer metastasis using an organotypic tumor microenvironment (TME) model.; note: nearly all actives have a fitted effect of over 65% in size;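 for Potency: count of GFP cancer cells still attached after washing and fixation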;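 for activity change, negative = inhibition: plate controls were DMSO wells for no effect and tomatine positive control wells for full effect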; conditions: SKOV3ip1-GFP adhesion/invasion on 3D omental model, fluorescence; series mostly up to 45.8 µM; activity change, negative = inhibition: at the top concentration
How it was run: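 Primary human omental fibroblast/mesothelial 3D culture pre-formed 48 h. SKOV3ip1-GFP cells added with compounds (0.36-46 umol/L), incubated 2 h RT/16 h 37 C, fixed; GFP cells quantified at 488/509 nm.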
Potency is the fitted concentration of half-maximal effect.

Activity change, negative = inhibition, inactive:
CN[C@H]1[C@@H](O)[C@@H]2O[C@@H]3O[C@H](C)CC(=O)[C@]3(O)O[C@@H]2[C@@H](NC)[C@H]1O -26%
CC(=O)c1ccc(S(=O)(=O)N2CCn3cccc3C2c2ccc(F)c(F)c2)cc1 (stereo unspecified) -8.08%
CN(C)C(=O)C(CCN1CCC(O)(c2ccc(Cl)cc2)CC1)(c1ccccc1)c1ccccc1 13.6%
CCc1cc(C(=O)NCc2ccc(F)cc2)no1 5.03%
Cc1ccc(NC(=O)CSc2nc(C3CCCC3)nc3c2c(=O)n(C)c(=O)n3C)c(C)c1 -4.09%
O=C(CSc1nccn1-c1ccc(F)cc1)Nc1cccc2ccccc12 32.7%
CCc1nnc(SCc2nc(-c3cccc(C)c3)oc2C)c2cc3sc(C)cc3n12 -3.04%
CCN1CCN(c2cc(C)c3cc(NC(=O)/C=C/c4ccc(OCCC(C)C)cc4)ccc3n2)CC1 -21.2%
COc1cccc(NC(=O)C2CCN(S(=O)(=O)c3c(C)noc3/C=C/c3cccs3)CC2)c1 4.45%
Cc1ccc(Cl)cc1Nc1nn2c(=O)c3ccc(C(=O)NC4CCC(C)CC4)cc3nc2s1 (stereo unspecified) -9.45%
Cc1ccc(NC(=O)C2CCCN(S(=O)(=O)c3cccc4nsnc34)C2)c(C)c1 (stereo unspecified) 5.4%
Cc1ccc(OCCCCn2nnc3sc4c(c3c2=O)CCC(C)C4)cc1 (stereo unspecified) 2.25%
CCn1c(=N)c(C(=O)NC2CCCC2)cc2c(=O)n3cc(C)ccc3nc21 -7.77%
CCOc1ccc(-n2nc3ccc(NC(=O)COc4ccccc4)cc3n2)cc1 10%
CCc1ccc(NC(=O)Cn2c(=O)n(CCC(=O)NCCc3ccc(OC)c(OC)c3)c(=O)c3ccccc32)cc1 14.9%
COc1cc(C[C@@H](CO)[C@H](CO)Cc2ccc(O)c(OC)c2)ccc1O -16%
CC(C)c1ccc(CNCCSc2nnnn2-c2ccccc2)cc1 5.52%
O=C(Nc1sc2c(c1C(=O)N1CCCCC1)CCCC2)c1ccccc1Cl -9.83%
Cc1noc(Cn2c(=O)c3cc4c(cc3n(CC(=O)Nc3ccccc3Br)c2=O)OCO4)n1 -10.4%
CCCCN1C(C(=O)c2ccccc2)=C(OC(C)=O)c2ccccc2S1(=O)=O -10.1%
CN(C)c1ccc(CNC(=O)CCS(=O)(=O)c2ccc3c(c2)oc(=O)n3C)cc1 1.96%
CCOc1cccc(C(=O)Nc2cc(-c3ccc(C)cc3)no2)c1 -10.5%
CCCCCCOc1ccc(C2C(=O)N(C3CCCCC3)CC(=O)N2CCCC)cc1 (stereo unspecified) 8.89%
CCCCN(CCCC)C1=C(C(=O)c2ccccc2)N(C)S(=O)(=O)c2ccccc21 -4.18%
Cc1ccccc1CNC(=O)CN(c1cccc(C)c1C)S(C)(=O)=O 1.43%
CCCS(=O)(=O)N1CCCC(C(=O)NCCOC)C1 (stereo unspecified) 20.1%
Cc1ccccc1Nc1cc(C(=O)NCc2cccs2)c2ccccc2n1 4.52%
C=C(C)Cn1c(=O)c2c(nc3n2CCN3c2ccc(F)cc2)n(C)c1=O 34.4%
CCOc1ccc(NCc2cccn2-c2nnc(N3CCC(C(=O)NCCOC)CC3)s2)cc1 33.7%
Cc1cccc(OCCn2c(SCC(=O)O)nc3ccccc32)c1 3.93%
CCOc1ccc(N(CC)S(=O)(=O)N2CCCC(C(=O)Nc3cc(Cl)ccc3OC)C2)cc1 (stereo unspecified) 0.812%
CCOC(=O)c1ccc(NC2SC(=O)N(Cc3cccc(C(=O)O)c3)C2=O)cc1 (stereo unspecified) -7.04%
Cc1ccc(CNC(=O)c2ccc(CSCc3ccccc3C)o2)cc1 1.71%
CCOc1ccc(Cn2c(CNS(=O)(=O)c3cccc(Cl)c3)nc3cccnc32)cc1 -6.05%
CCOc1cccc(C(=O)N(Cc2ccc(CC)cc2)C2CCS(=O)(=O)C2)c1 (stereo unspecified) -22.7%
CCCCN(CC)C(=O)Cn1ncc2c3ccccc3n(CCC)c2c1=O 3.88%
COc1ccc(-n2cc(C(=O)NCc3ccccc3Cl)c3ccccc3c2=O)cc1 -11.5%
COc1ccccc1NC(=O)CSC1=Nc2ccccc2C2=NC(CCC(=O)NCc3cccs3)C(=O)N12 (stereo unspecified) -3.85%

outcome, inactive:
COc1ccc(C(=O)Nc2cc(NC(=O)c3ccco3)ccc2OC)cc1Cl
CN1CCN(C2(CNC(=O)COc3ccc(C(C)(C)C)cc3)CCCCC2)CC1
O=C(Cn1c(=O)n(-c2ccc(F)c(Cl)c2)c(=O)c2sc3ccccc3c21)NC1CCCCC1
CCOc1ccc(C(=O)NCCc2csc(-c3cccnc3)n2)cc1
CCOC(=O)c1c(-c2ccccc2)oc2cc(Br)c(OCc3ccccc3)cc12
Cc1cc(C)cc(NC(=O)C2CCN(c3nc4ccccc4nc3C(F)(F)F)CC2)c1
CCNC(=O)C1CCCN(c2nn3cc(-c4ccc(C)cc4)nc3s2)C1 (stereo unspecified)
COc1ccc(NC(=O)CNC(=O)Cn2c(C)cc3ccccc3c2=O)cc1OC
Cc1ccc2c(=O)cc(C(=O)Nc3sc4c(c3C(=O)NCc3ccccc3)CCCC4)oc2c1C
O=C(CN1C(=O)CCc2cc(S(=O)(=O)N3CCOCC3)ccc21)Nc1cccc(C(F)(F)F)c1
COc1ccccc1/C=C/c1nc(C#N)c(NCCc2ccccc2)o1
CCOc1ccc(-c2nc(Cn3ccn4nc(-c5ccc(OCC)c(Cl)c5)cc4c3=O)c(C)o2)cc1
Cc1cc(=O)n2nc(N3CCC(C(=O)NCc4ccc(F)cc4)CC3)sc2n1
COc1ccc(Nc2ncc(C(=O)N3CCN(c4ccc(F)cc4)CC3)c3ccccc23)cc1
COc1ccc(CNS(=O)(=O)c2ccc(-c3cnc(C4CC4)o3)cc2)cc1
COc1ccc(C)cc1N(C)C(=O)c1c2c(nc3ccccc13)C(=O)N(C1CCCCC1)C2
COc1cc2nc(SCC(=O)Nc3ccccc3F)n3nc(-c4ccccc4)nc3c2cc1OC
COc1ccc(-c2nc3scc(CCNS(=O)(=O)c4ccc(NC(C)=O)cc4)n3n2)cc1
COc1ccccc1C(=O)N1CCN(Cc2cc(=O)oc3cc(C)ccc23)CC1
CCc1ccc(NC(=O)CSc2nc3c(sc4ccccc43)c(=O)n2CCCOC(C)C)cc1
CCCNC(=O)Cn1nc(-c2ccc(F)cc2)c2cnc3ccc(F)cc3c21
Cn1c(=O)[nH]c2cc(-c3noc(-c4cccc(Cl)c4)n3)ccc21

Potency, active:
CCC(C)S(=O)(=O)c1oc(-c2ccc(F)cc2)nc1S(=O)(=O)c1ccc(F)cc1 (stereo unspecified) 3.55 µM
